# Laboratory results: the supplement of paper PMC11417369
# This is one part of the list.
# Test system: PfHDP1 homeodomain (GST-tagged)
# Test: gcPBM binding intensity (ln(normalized median fluorescence intensity)); higher = stronger DNA binding
# In short: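 An Agilent 4 × 180k array carrying primer-extended double-stranded 36-bp intergenic genomic probes and negative controls received GST-tagged P. falciparum DNA-binding domains expressed in E. coli, about 25 μg on average, for 1 h. The binding buffer contained 1× PBS, 1% milk, 0.2 mg/ml BSA, 0.5% salmon testes DNA and 0.03% Triton X-100. Binding intensity is the top Masliner-normalised natural-log median intensity across replicate spots of either probe orientation, read after Alexa488 anti-GST antibody staining and a 488 nm scan.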
row,Sequence,gcPBM binding intensity (ln)
1,TGATAAATATGGAGCACACACACATAAACATACATA [CACACA_site420],7.23
2,TTGTATCCTTAATGCATGCACCAAATAACAAAAGTA,9.31
3,TTTAAAAGATAAAACACACATACTAATAAAAAACAA [CACACA_site2556],7.29
4,TTGTTGTATTATTTATGTACATATGTATATGTATAT [XGTACX_site1315],6.82
5,AAAAAAAAAAAAAAAAGGGGGGGAGGGATTGAAAAA [CACACA_negctrl_site193],7.97
6,ACAGTATTTCGAGATGGTACACATATATATATATAT [XGTACX_site6880],9.39
7,AATGAGGATATATACACACATACATTAAAAAAATAT [CACACA_site1849],6.67
8,AAATAAAATAAAATAAAATAAAATAAAATAAAATAA [XGTACX_negctrl_site142],6.37
9,TTATTTATGAGGGTGACACACAAAAGAGTGTTAAGA [CACACA_site277],6.22
10,AAAAAAAAACACGCATGTACATAAAAATAATCATAC [XGTACX_site1086],6.87
11,TACTTATTTGATTGGGTGCATATATATAGTATGTAT [GTGCAC_site9845],9.2
12,AATAATAATTTAAAAAGTACATTCTAATAAACACGT [XGTACX_site1444],6.62
13,TATTTCAAATGTTATGTGCACATATTAATCCTACTT [GTGCAC_site9738],10.7
14,AATATCTGAAAATAAAGTACAAACATATTATAAATA [XGTACX_site5738],6.53
15,TTTTTTTTTTTTTTTGGTACACATTTTGGTTAATGG [XGTACX_site5109],6.48
16,AAAATTATGCAGTAGGTGCAATACCCTCGGCTTTTT [GTGCAC_site9556],9.44
17,ATAAAAAGGTTTAAAAAAAAAAAAAAAAAAAAAAAA [CACACA_negctrl_site412],6
18,CTTGTGCTTTATAGGGTGCACATTTTGTTTTGGTAA [GTGCAC_site9899],9.59
19,TGAACACATACATACACACACACAAAAAAAAAAAAA [CACACA_site392],6.73
20,TTATTAATTATATATAGTACACATTTCACAGATGGG [XGTACX_site2349],6.7
21,GATGAAATATCATTACGTACACAATAGTTTGTATTT [XGTACX_site5143],6.36
22,AATGAATAAATAAACACACACACATATATATATATG [CACACA_site18],6.98
23,ATTATTGCAATTTAATGTACATAATACAAATTTGCC [XGTACX_site2729],9.65

row,Sequence,gcPBM binding intensity (ln)
1,TATACGTATACCTATACACACATATATATATATATA [CACACA_site1273],9.31
2,TATATTCAAAAAAATTCATTTCTGATTTTTTTTTTT [CACACA_negctrl_site1085],6.09
3,AATAATAATAGAAACACACACACATTTTTAAGAATA [CACACA_site6692],6.79
4,TGAAAAAAAAAATGCACACGCATACAGATAATATGT [CACACA_site4526],8.98
5,TGAAGGTTTCAAAAACGTACAAAAAAAAATGTTAGT [XGTACX_site8803],6.87
6,TTTAGAAATAAATACACACATACATTTTTGTATACA [CACACA_site718],6.32
7,TTTTTTTTTTATGGTACACACACGCGTATGGTTGCA [CACACA_site1876],6.43
8,TAAAATAAAAATATAGTGCACAGATTTTGATATTTT [GTGCAC_site9696],10.4
9,CTTTGTGGTATAGATACACACTATATTAAGATGAAC [CACACA_site5215],6.22
10,CACATTATGTATCATACACACAAATAGATATATAAC [CACACA_site6434],6.56
11,TATCTTAACAATTAGTGTACAGATAACCAATTAAAA [XGTACX_site3184],6.09
12,AACATATAAAAATGTGCACACACACCCATATATATA [CACACA_site1525],10.7
13,ATAATAAATGATAGCACACATATGTACATAAATACA [CACACA_site4634],6.83
14,ATATTATATATTTGATGTACATTGAATGAGAGAGAA [XGTACX_site3324],7.34
15,AAATCATGTTGAAGGGGTACAAAATATGTAATGTTG [XGTACX_site6222],6.5
16,TATATATATATATAATGTACAGAAAAAAAAAAAAAA [XGTACX_site6141],8.74
17,TTAATCCTTTTTAAAAGTACACATATATATATATAT [XGTACX_site962],9.32
18,AAAAGAAAATATATGTGTACTAAAATATATATATAT [XGTACX_site3817],8.77
19,ACTTTTATTCGCTTACGTACATATATTATATATTAT [XGTACX_site4459],7.73
20,GTTTATTAAACATTAGTGCAATTTTAATCCATTCTA,8.94
21,TTTAAAGTAATAAAGTGTACAAAAATAAATTCAGCT [XGTACX_site8651],7.04
22,TACCTACACTTTTGGAGTACAATTAAAAAAAAAAAA [XGTACX_site1403],6.23
